We go through 120 sequences from the supplement of paper PMC10126150.

For this series, the system named is ATP. Nature of the series: switch fluorescence ratio, 500 uM ATP over buffer (Cy3 cluster intensity, sum of 5 cycles each) (fold (ratio)); higher = stronger signal-on switching upon ATP binding; sequences stand for … in TCGTCGGCAGCGTCAGATGTGTATAAGAGACAGTTTTTTTTTTTTTTTTTTTTTTTTT…TC. The following applies: aptamer strand: ATP DNA aptamer (quencher-CACCTGGGGGAGTATTGCGGAGGAAGG + anchor), 100 nM annealed; ATP concentration: 500 uM; one replicate. The procedure, abridged: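 Five buffer/ATP imaging cycles were run on Cy3-labelled switching-strand clusters on a modified Illumina MiSeq flow-cell, with NaOH stripping and re-annealing between cycles. In each cycle, clusters annealed to 100 nM quencher-labelled ATP aptamer were imaged in selection buffer, then after 15 min with 500 uM ATP at 22 °C. Per cluster, the fluorescence ratio is summed target-cycle over summed buffer-cycle Cy3 intensity, averaged per switch-domain sequence. Only clusters within 100-1000 RFU were kept.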

Sequences with one replicate were seen in a single cluster, so their values are uncertain.
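Further: ATP exposure 15 min at 22 °C before imaging.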

For AAAACCGTGC, the switch fluorescence ratio stood at 1.23. On to CGTCCGACTG, for which the switch fluorescence ratio amounted to 1.59. In the case of GAGAGTAAGG, the switch fluorescence ratio is 0.979.

Take CGGTTTTCTC: the switch fluorescence ratio was 0.99. In the case of CTAAGGTGTG it was 0.993. For GTGAAGTTGC, the switch fluorescence ratio was 1.02. Take GGAGCTATTG: the switch fluorescence ratio turned out to be 1.12. As for GAAGCCTCTC, the figure is 1.05; as for GCGGTAGCTT, 0.994; as for AACTAGGGGT, 1.01.

With GACGAGGCAT, the switch fluorescence ratio stood at 3.87.

For ACACGAGTTT, the switch fluorescence ratio amounted to 1.01. As for GGGAAGGATG, the figure is 0.987; as for GACAATCTTC, 1; as for AAGCCGAGCT, 1.03. Take TTAAACCAGG: the switch fluorescence ratio was 3.27. With ACTGGGCGCT, the switch fluorescence ratio was determined as 0.992. Regarding AAAATGGGAG, the switch fluorescence ratio was found to be 1.17. Consider TGCCCGATCC, for which the switch fluorescence ratio came out at 1.09. With GTGTTAAATC, the switch fluorescence ratio was found to be 0.975. As for TTTTCCGGG, the figure is 1.05; as for ATGGGGTTCA, 0.971. On to ATACCTACTT, for which the switch fluorescence ratio worked out at 1.24.

CGTTATTATT: the switch fluorescence ratio was 1.01.

As to ATGTCTGCTG, the switch fluorescence ratio stood at 1.01. In the case of CCAGAGGTCG it was 0.97. With TGAAACCACA, the switch fluorescence ratio was 1.08. For the sequence CATGATACTG, the switch fluorescence ratio was 1.05. As for ACGCCTGCCA, the figure is 1.07. As for ACTAGAATTT, the figure is 0.979; as for AGCCGAAGGC, 0.969. As to CCAGTTGATC, the switch fluorescence ratio was found to be 0.948. For GTTGTTCTCT, the switch fluorescence ratio turned out to be 1.14. In the case of TACAATACAC it was 1.29; in that of CTTGCGTGCT, 0.986. Regarding TAGCCTAGGA, the switch fluorescence ratio is 1.07. As for ACCCTTTTAT, the figure is 1.05. As for GCGTGAGGAA, the figure is 0.983. In the case of TGGCCAAACC it was 1.05; in that of CTGTAAGAGC, 0.998. Regarding CGCGTTGTTT, the switch fluorescence ratio amounted to 1. As to GCCTATTGGC, the switch fluorescence ratio turned out to be 0.993.

Take GGTCAAAGCT: the switch fluorescence ratio turned out to be 0.957. As for TTGTTTCTGT, the figure is 0.987; as for ATATAGCAGT, 1.01; as for CACGAGCTCT, 1.04.

In the case of CAAAAACAG, the switch fluorescence ratio was found to be 1.05.

For the sequence TGAGAAAGCG, the switch fluorescence ratio turned out to be 0.973. As to GTTGAAAGGA, the switch fluorescence ratio came out at 0.967.

Consider TAATTGGCTA, for which the switch fluorescence ratio stood at 0.967.

Consider ATGACCAATA, for which the switch fluorescence ratio is 1.08.

As to GCCAACCCCT, the switch fluorescence ratio was found to be 1.07. As for GCATTTTGGC, the figure is 0.952. In the case of TGGCGAAGTC it was 1.07. In the case of TTCGTACACT, the switch fluorescence ratio came out at 1. Turning to CTGATACTTG, the switch fluorescence ratio turned out to be 1.02.

With GTTCCGGAAG, the switch fluorescence ratio turned out to be 0.988. As for AGACCCCAAA, the figure is 1.04; as for CGAGGGGTGA, 0.99; as for ACCGTAATTG, 1.23.

Take CGCGTGTTAC: the switch fluorescence ratio amounted to 1.07. As to GTGCCTAGTT, the switch fluorescence ratio stood at 1.01. As for ATCCATTAAT, the figure is 1.01; as for CTAATCTTGG, 1.02; as for AGTGCACCTC, 0.975. In the case of TCTGACCGAA it was 1.12. As for GAGGGGGA, the figure is 0.975. With TTGCCTGAAT, the switch fluorescence ratio amounted to 0.978. Turning to AGTCCGGGTG, the switch fluorescence ratio stood at 3.39. As for TTGATTTCTG, the figure is 1.04. In the case of ATGATGTATT it was 0.984; in that of CTGGGGGTAC, 1.06. For AACAGCTTTT, the switch fluorescence ratio turned out to be 0.987. Consider CGGTTAATGC, for which the switch fluorescence ratio was 1.45. For the sequence AAGCAAATTG, the switch fluorescence ratio was 1.04. As for TACTTAAG, the figure is 1; as for TGGGTGAGTC, 0.974. As for TGGGTAGCTG, the figure is 0.97; as for CGCTGTTAAC, 1.37; as for TTAATCGAAT, 1.05. As for ATGCGAGGGT, the figure is 1.01; as for CCTTTACTTT, 1.03; as for AATGGGTCCC, 1.02. TTAATTAGT: the switch fluorescence ratio turned out to be 1.06. In the case of CTCGCATTCT it was 3.88.

As for ATATGCTGTT, the switch fluorescence ratio worked out at 1.03. In the case of GACATCATAT it was 1.05; in that of CCTGGGCTGG, 1.05. In the case of CAGCGAAAAA it was 0.983. Take CGAATCAGTT: the switch fluorescence ratio is 1.

Turning to TAGATGATAA, the switch fluorescence ratio amounted to 0.989. Regarding TATATTGCCA, the switch fluorescence ratio was 1.02.

Regarding GTAGATGGTG, the switch fluorescence ratio stood at 0.989.

Regarding AGAGGCGAGT, the switch fluorescence ratio stood at 1.03. In the case of TTCCGTTCCA it was 1.03; in that of AAAGCAGTCA, 0.964; in that of AACGTTTTAT, 1.03. With CGCCGCTTGT, the switch fluorescence ratio is 1.67. As for CTGCTAACGT, the figure is 1.01. In the case of TAGAGCCTGT it was 0.971; in that of ATACGGGAAC, 1.01.

TGTGCAGAGA: the switch fluorescence ratio amounted to 1.03.

On to TTCTGGGGTT, for which the switch fluorescence ratio was determined as 1.05. As for CACCGGGTG, the figure is 4.68; as for CCTGCTACAT, 1.09.

For CAGCCGCGTT, the switch fluorescence ratio came to 2.24. On to TGCCTTAACC, for which the switch fluorescence ratio worked out at 1.05. Take TTCGCGTGTC: the switch fluorescence ratio was determined as 1.07. For the sequence GTCGTCGGGC, the switch fluorescence ratio came to 1.05. In the case of GACGCTGCGT it was 1.01. In the case of TATATT it was 0.966. Take AAACGCAAGA: the switch fluorescence ratio came to 2.78.

ATTACAATAT: the switch fluorescence ratio amounted to 1.04. In the case of AAGGGAGTAT, the switch fluorescence ratio is 1.01. As for GGGCAATGGC, the figure is 1.13. In the case of ATAGACTTAC it was 1.27. In the case of CACGGGATT it was 1.02; in that of GAGCCTGTGT, 1.01; in that of CACTTGATGA, 1.03. Turning to CGCGTACACT, the switch fluorescence ratio was 1.13.
